Reference: PubChem BioAssay AID485344 (National Center for Advancing Translational Sciences (NCATS), 2010)
Several values for one entry are separate records, joined by “and”; a condition that tells them apart may be missing. Equal entries are not always repeated. The campaign covered roughly 340,000 compounds. About 6,900 (2%) were called active. Rule as the data show it: active = inhibition above about 30%; inactive = below that, where a call was filed. This is a selection; strong and weak results do not stand in their true shares. Where no call is shown, the source filed none.
Also: 0% is about no effect.

These compounds were tested against D(2) dopamine receptor (Homo sapiens) (UniProt P14416) (assay: HTS Assay for Allosteric Antagonists of the Human D2 Dopamine Receptor: Primary Screen for Antagonists). Conditions: HEK293 TREx D2 cells, calcium flux, dopamine EC80; at 10 µM; stronger effect = higher value.
Sequence of UniProt P14416 (P14416 whole entry, looked up): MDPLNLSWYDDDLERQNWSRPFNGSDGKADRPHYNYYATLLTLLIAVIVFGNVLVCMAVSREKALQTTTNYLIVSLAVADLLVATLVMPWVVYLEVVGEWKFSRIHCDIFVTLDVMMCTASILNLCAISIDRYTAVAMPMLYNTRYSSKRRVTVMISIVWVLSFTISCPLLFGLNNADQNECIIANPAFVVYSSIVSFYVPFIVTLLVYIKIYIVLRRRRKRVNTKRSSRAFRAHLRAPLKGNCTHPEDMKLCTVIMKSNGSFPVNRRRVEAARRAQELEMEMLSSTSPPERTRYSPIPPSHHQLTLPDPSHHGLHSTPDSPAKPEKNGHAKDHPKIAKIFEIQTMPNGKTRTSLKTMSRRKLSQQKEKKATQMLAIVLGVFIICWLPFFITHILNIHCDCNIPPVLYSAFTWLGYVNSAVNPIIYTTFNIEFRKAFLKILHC
Method in brief: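 In this primary screen, negative modulation is detected by tracking calcium flux after an EC80 dopamine challenge in inducible HEK293 T-REx D2 cells preexposed to test compound for 180 s.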
Compound `Cc1ccc(CNC(=O)c2nc(S(=O)(=O)Cc3ccc(C)cc3)ncc2Cl)cc1` has an inhibition of -3%.
Work on `CCOC(=O)C1(C)C=C(Nc2cccc(C)c2)C(=O)N1c1ccccc1` (stereo unspecified) yielded an inhibition of -5.4%.
`COc1cccc(-c2nc(SCC(=O)NC3CCCC3)c(-c3ccc(F)cc3)[nH]2)c1` was tested, and the inhibition was 3.65%.
In the case of `COCc1nc(-c2ccc(-c3ccccc3)nc2OC)no1`, the inhibition is reported as active: 42.3%.
Compound `CC1CCN(S(=O)(=O)c2ccc3nc(Nc4cccc(C(F)(F)F)c4)ccc3c2)CC1` has an inhibition of 5.21%.
With `CC(C)c1ccc(/C=C(\C#N)c2nc(-c3cc4ccccc4oc3=O)cs2)cc1` the inhibition was 10.4%.
In the case of `CCOc1ccc(C(=O)Nc2ccc3nc(SCC(=O)N(C)c4ccccc4)sc3c2)cc1`, the inhibition is reported as -11.5%.
`COc1ccccc1CNC(=O)c1ccc(Nc2nc3ccccc3n3nnnc23)cc1` gave an inhibition of 6.1%.
Compound `CCOc1ccc(/C=C/c2nc3ccccc3n2S(=O)(=O)c2cccc(Cl)c2)cc1` has an inhibition of -5.33%.
With `O=C(CCNS(=O)(=O)c1cccs1)NC1CCN(Cc2ccccc2)CC1` the inhibition was active: 41.3%.
`O=C(NCc1ccccc1)N1CCc2c(sc3c2CCCC3)C1c1ccccc1` (stereo unspecified) was tested, and the inhibition was -17.5%.
With `Cc1ccc(C2CC2/C(=N/O)c2ccc(F)cc2)cc1` (stereo unspecified) the inhibition was active: 33.6%.
Compound `COC(=O)c1ccc2c(=O)n(CCCCCC(=O)NC(C)C)c(=O)[nH]c2c1` has an inhibition of -0.781%.
In the case of `O=C(Nc1ccnn1C1CCN(Cc2ccccc2OCCO)CC1)c1cccc(F)c1`, the inhibition is reported as active: 40.5%.
Compound `Cc1cc(C)cc(NC(=O)CCS(=O)(=O)c2ccc3c(c2)oc(=O)n3C)c1` has an inhibition of -1.25%.
In the case of `Cc1ccc(Cl)cc1NC(=O)N1CCc2cc(S(=O)(=O)N3CCC(C)CC3)ccc21`, the inhibition is reported as 4.51%.
Compound `O=C(Nc1nnc2n1CCS2)c1ccccc1` has an inhibition of 5.98%.
`CC(=O)Nc1ccc2nc(SCCOc3ccccc3)sc2c1` was tested, and the inhibition was -10.9%.
`Cc1cccc(NC(=O)C2(C)Cc3ccccc3C(=O)O2)c1` (stereo unspecified) showed an inhibition of 4.58%.
In the case of `Cc1ccc(NC(=O)C(=O)NCCCN2CCOCC2)cc1C`, the inhibition is reported as 1.95%.
With `COc1ccc2sc(N(CCN(C)C)C(=O)/C=C/c3cccs3)nc2c1` the inhibition was active: 35.8%.
In the case of `Cc1c(CNC2CCCCCC2)c(C(=O)O)c(C)n1Cc1ccc(F)cc1`, the inhibition is reported as -11.2%.
With `CCc1ccc(CN(Cc2ccco2)C(=O)COc2ccc(Cl)cc2C)cc1` the inhibition was -2.58%.
With `CCc1ccc(NC(=O)CCCn2nc(C)c3c(C)n(-c4ccccc4)nc3c2=O)cc1` the inhibition was -8.16%.
Work on `CC(C)CC(C(=O)NCCc1ccccc1)N1Cc2ccccc2C1=O` (stereo unspecified) yielded an inhibition of -10.2%.
In the case of `CCCSc1nnc2n(-c3ccc(OC)cc3)c(=O)c3c4c(sc3n12)COC(C(C)C)C4` (stereo unspecified), the inhibition is reported as -21.8%.
For `Cc1nn(C(C)(C)C)c(OC(=O)c2cccc(F)c2)c1Sc1ccccc1`, the inhibition was 10.9%.
`CCOc1ccc(CNC(=O)C2CCN(Cc3cc4ccccc4n3Cc3ccccc3C)CC2)cc1` gave an inhibition of 14%.
`COc1ccc2c(c1)c1nc3ccccc3nc1n2CCn1c(=O)oc2ccccc21` was tested, and the inhibition was active: 33.6%.
With `CCn1c(CC2C(=O)N(C)c3ccccc32)nc2ccccc2c1=O` (stereo unspecified) the inhibition was 22%.
`O=C(Nc1cccc(F)c1)[C@@H](c1ccccc1)N1Cc2ccccc2C1=O` showed an inhibition of 0.0966%.
`COc1ccc(Cl)cc1NC(=O)CSc1nc(-c2ccccc2)c2ccccc2n1` was tested, and the inhibition was 7.55%.
`Cc1ccc(OCC(=O)Nc2cc(-c3cccc(C)c3)nn2-c2ccccc2)cc1` was tested, and the inhibition was 0.216%.
Work on `CCc1nc2c(cnn2-c2ccc(Cl)cc2)c(=O)n1-c1ccc(OC)c(Cl)c1` yielded an inhibition of -14.8%.
With `Cc1ccc(CCNC(=O)c2ccc3c(c2)c(C)c(C)n3Cc2ccccc2)cc1` the inhibition was -3.17%.
Compound `CCOc1ccccc1C(=O)Nc1cc2c(cc1N1CCOCC1)n(C)c(=O)n2C` has an inhibition of 11.1%.
For `CCCn1c(CCC(=O)Nc2cccc(CC)c2)nc2cccnc21`, the inhibition was 5.69%.
`Cc1ccccc1CNC(=O)c1ccc(CS(=O)Cc2ccc(Cl)cc2)o1` (stereo unspecified) was tested, and the inhibition was 8.96%.
`COc1ccc(-n2c(=O)c3sc4ccccc4c3n(CC(=O)NCc3ccccc3)c2=O)cc1` was tested, and the inhibition was -3.85%.
`O=[N+]([O-])c1cc(-c2nc(-c3ccccc3)no2)ccc1NCCc1ccccc1` showed an inhibition of 7.27%.
`COc1ccc2[nH]cc(CCNC(=O)c3cnn(-c4ccccc4Cl)c3C3CCN(C(=O)OC(C)(C)C)CC3)c2c1` was tested, and the inhibition was 21.7%.
In the case of `COc1ccc(-c2[nH]c(-c3cccc(OC)c3)nc2SCC(=O)NCc2ccco2)cc1`, the inhibition is reported as active: 39%.
`CN(CCOc1ccccc1Cl)Cc1ccccc1` was tested, and the inhibition was active: 84.7%.
`CCOc1ccc(C(=O)Nc2ccc(-c3nc4ccccc4s3)c(C)c2)cc1OCC` was tested, and the inhibition was -7.7%.
Compound `Cc1cccc(N2CCN(C(=O)c3ccc(NC(=O)c4nsc5ccccc45)cc3)CC2)c1C` has an inhibition of 4.44%.
In the case of `Cc1nc2c(C(=O)NCCc3ccccc3)c[nH]n2c(=O)c1Cc1ccc(F)cc1Cl`, the inhibition is reported as -12.6%.
`Cc1ccc(NC(=O)Cn2nnc(-c3nc(-c4ccc(Cl)cc4)no3)c2N)cc1C` was tested, and the inhibition was 4.86%.
`COc1ccc(-c2cc(C(=O)N3CCOCC3)no2)cc1` was tested, and the inhibition was active: 34.6%.
`O=C(CCC(=O)Nc1ccc(Br)cc1)N/N=C/c1ccc(O)cc1` was tested, and the inhibition was active: 33.3%.
`CCN(c1cc(C)cc(C)c1)S(=O)(=O)c1nnc(NC(=O)c2ccco2)s1` gave an inhibition of 0.428%.
`CC(C)Cn1c(=O)c2ccccc2n2c(CCC(=O)Nc3ccc(F)c(F)c3)nnc12` gave an inhibition of 9.09%.
`CCN(C(=O)Cn1nc(Cc2ccncc2)c2ccccc2c1=O)c1cccc(C(F)(F)F)c1` gave an inhibition of -0.788%.
`O=C(NCCc1ccccc1)c1ccc2c(c1)CCN2S(=O)(=O)c1ccccc1` was tested, and the inhibition was 4.62%.
`CC(C)CSc1ccccc1NC(=O)c1sc2nc(-c3ccncc3)ccc2c1N` gave an inhibition of 19.6%.
`O=C(Cn1cc(S(=O)(=O)Cc2ccccc2F)c2ccccc21)NCc1ccccc1Cl` was tested, and the inhibition was -2.6%.
In the case of `Cc1cc(C)cc(NC(=O)CN2C(=O)CCc3cc(S(=O)(=O)N4CCCCC4)ccc32)c1`, the inhibition is reported as 0.222%.
`Cc1nn2c(=O)cc(COC(=O)c3ccc(NC(=O)c4cccs4)cc3)nc2s1` gave an inhibition of -10%.
For `CCOC(=O)c1c(NC(=O)C(C)Oc2ccc(Cl)c(C)c2)sc2c1CCCC2` (stereo unspecified), the inhibition was -8.68%.
`Cc1ccc(Nc2sc(C(=O)c3ccccc3)c(N)c2S(=O)(=O)c2ccccc2)c(C)c1` was tested, and the inhibition was 3.2%.
Compound `COc1ccc(CCNC(=O)c2c(C)nn(-c3ccc(F)cc3)c2-n2cccc2)c(OC)c1OC` has an inhibition of 14.1%.
For `COc1ccccc1N1CCN(C(=O)Cn2c(=O)n3nc(-c4cccc(C)c4)nc3c3ccccc32)CC1`, the inhibition was -23.5%.
Compound `CCCSc1ncc(Cl)c(C(=O)Nc2c(C(=O)c3ccc(F)cc3)oc3ccccc23)n1` has an inhibition of 10.7%.
Work on `CCOc1ccc(CNC(=O)C2CCCN(S(=O)(=O)N(CC)c3ccc(OCC)cc3)C2)cc1` (stereo unspecified) yielded an inhibition of 5.47%.
In the case of `COc1ccc(-n2ncc(C(=O)Nc3ccc4c(c3)OCCO4)c2C2CCN(C(=O)OC(C)(C)C)CC2)cc1`, the inhibition is reported as 1.42%.
`Cc1cccc(C(=O)Nc2cccc(OCc3cc(=O)n4ccccc4n3)c2)c1` gave an inhibition of -7.59%.
`CCc1cccc(NC(=O)CCS(=O)(=O)c2cc3c4c(c2)CCN4C(=O)CC3)c1` gave an inhibition of -1.83%.
In the case of `Cc1c(Cl)cccc1-n1nc(C)c2c(C)cc(=O)n(CC(=O)NCc3ccccc3)c21`, the inhibition is reported as -9.26%.
For `O=S(=O)(c1ccccc1)N1CCN(S(=O)(=O)N2CCCCC2)CC1`, the inhibition was active: 37.8%.
`COc1cc2c(cc1OC)C(COc1ccccc1OC)N(C(=O)c1ccccc1OC)CC2` (stereo unspecified) was tested, and the inhibition was -14.1%.
Work on `Cc1cc(C)c(NC(=O)Cn2c(=O)n(Cc3ccccc3)c(=O)c3c(C)c(C(=O)N(C)C)sc32)c(C)c1` yielded an inhibition of -4.17%.
`COc1cc2c(=O)c(S(=O)(=O)c3ccccc3)cn(CC(=O)Nc3ccccc3C)c2cc1OC` showed an inhibition of -4.94%.
With `CCN1CCN(c2ncnc3scc(-c4ccc(C)cc4)c23)CC1` the inhibition was active: 67.6%.
Work on `CCOc1ccccc1NC(=O)CN1CCN(S(=O)(=O)c2ccc(Br)cc2)CC1` yielded an inhibition of -8.96%.
`CC(=O)c1cccc(NC(=O)c2nc(-c3ccccc3)n(-c3cccc(C)c3)n2)c1` was tested, and the inhibition was 21%.
Work on `CCS(=O)(=O)N1CCc2cc(C(=O)Nc3ccc(OC)cc3OC)ccc21` yielded an inhibition of 7.68%.
Compound `CCC1CCCCN1Cc1cn2c(-c3ccc(Br)cc3)nnc2s1` (stereo unspecified) has an inhibition of 7.09%.
With `O=C(Nc1nc2n(n1)C(c1ccc(F)cc1)C=C(c1ccccc1)N2)c1cccc([N+](=O)[O-])c1` (stereo unspecified) the inhibition was 25.2%.
For `COc1c(Cl)cc(Cl)cc1CNCCSc1nnnn1C`, the inhibition was -15.3%.
Work on `CCC(C)NC(=O)CSc1nc2cc3c(cc2c(=O)n1CCCCCC(=O)NCc1ccc(OC)cc1)OCO3` (stereo unspecified) yielded an inhibition of 10.1%.
`Cc1cc(Cl)ccc1NC(=O)c1cc2ccccn2n1` gave an inhibition of -7.9%.
`Cc1ccc(CNC(=O)CSC2=Nc3ccccc3C3=NC(C)C(=O)N23)cc1` (stereo unspecified) gave an inhibition of 16.5%.
In the case of `CCN(CCO)C(=S)Nc1cc(S(=O)(=O)N(C)C)ccc1C`, the inhibition is reported as active: 50.6%.
`CC(=O)Nc1cccc(NC(=O)C(=O)NCCc2csc3nc(-c4ccccc4F)nn23)c1` gave an inhibition of 26.3%.
With `O=C(NC1CCN(Cc2ccccc2)CC1)c1ccc(S(=O)(=O)NCc2ccco2)cc1` the inhibition was active: 35.6%.
Work on `CCOC(=O)c1ccccc1NC(=O)c1nn(C)c2c1COc1ccccc1-2` yielded an inhibition of 21.6%.
Work on `Cc1ccc(OCc2nnc(-c3ccccc3)o2)cc1` yielded an inhibition of -9.32%.
For `CC(C)CCNC(=O)c1cn(C)c2ccc(S(=O)(=O)N3CCOCC3)cc2c1=O`, the inhibition was -7.63%.
`COCCCN1CCN(C2Cc3ccccc3Sc3ccc(Cl)cc32)CC1` (stereo unspecified) was tested, and the inhibition was active: 107%.
With `COc1ccccc1N1CCN(S(=O)(=O)c2ccc(-c3cnc(C4CC4)o3)cc2)CC1` the inhibition was 9.72%.
In the case of `COc1cc(OC)c(NC(=O)CCNS(=O)(=O)c2ccc3c(c2)oc(=O)n3C)cc1Cl`, the inhibition is reported as -12.1%.
With `CN(C)CC/C=C1/c2ccccc2Sc2ccc(Cl)cc21` the inhibition was active: 66.3% and active: 103%.
`COc1ccc(-n2c(CCC(=O)O)ccc2-c2ccccc2)c(OC)c1` showed an inhibition of -12.1%.
In the case of `CC(=O)N1CCCc2cc(S(=O)(=O)N(Cc3ccccc3)C(C)C)ccc21`, the inhibition is reported as 2.14%.
With `CCCCc1ccc(NC(=O)CSc2nnc3[nH]c(=O)cc(C)n23)cc1` the inhibition was 0.483%.
With `CCCN(CCC)C(=O)CSc1nnc2cc(C)c3ccccc3n12` the inhibition was 3.63%.
With `CCN(CC)CCNC(=O)c1cc2c(=O)oc3ccc(C)cc3c2s1` the inhibition was 17.1%.
